# This is one part of the list.
# System: PfAP2-HC AP2 domain (GST-tagged)
# Assay: gcPBM binding intensity (ln(normalized median fluorescence intensity)); higher = stronger DNA binding
# How it was run: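 Plasmodium falciparum DNA-binding domains carrying a GST tag were expressed in E. coli and applied for 1 h, at about 25 μg on average, to an Agilent 4 × 180k array. The array held primer-extended double-stranded 36-bp intergenic genomic probes together with negative controls, and binding took place in 1× PBS with 1% milk, 0.2 mg/ml BSA, 0.5% salmon testes DNA and 0.03% Triton X-100. An Alexa488 anti-GST antibody detected bound protein, and the array was scanned at 488 nm. Binding intensity is taken as the highest Masliner-normalised natural-log median intensity across replicate spots of either probe orientation.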
row,Sequence,gcPBM binding intensity (ln)
1,TTTTTTTTTTTAAAATGTACACGTAATTACATATAT [XGTACX_site752],9.77
2,ACTACATTATTGCATTGTACTTTTTTTTTTTTTTTA [XGTACX_site4605],9.78
3,TTAAAAATTATATAAGTGCATTAATATTTAGAACAA [GTGCAC_site9773],9.54
4,AAAATATATTAAGGCACACACATACATATATATATA [CACACA_site3723],10.7
5,GAGTTAATATTTAAAAGTACAAGATGAATGTAAAAA [XGTACX_site5810],9.73
6,TATATTGAATGCAAAAGTACATTTGTGTAAATTTAT [XGTACX_site7611],9.72
7,TTTTTTTTATTAGTGTGTACGCATTTATTTATACAT [XGTACX_site1599],10.1
8,TTTAAATTATGAAATTGTACATATAAAAATATTTTA [XGTACX_site4796],9
9,TATATATTATTTAAAACACACAAAAAAAAAAATTAT [CACACA_site89],9.81
10,TTAAAAATATATGAATGTACATATATTTATATATAT [XGTACX_site77],9.55
11,TACTTACCAAAATACACACACACACCCAATATATAA [CACACA_site1871],10.5
12,AATAAAATGAGATGTTGTACAGTTTTGATATATGCA [XGTACX_site3052],9.71
13,TTTAAAAATGCTACATGTACAAAATAAAATATAATA [XGTACX_site2905],9.65
14,ATATATATATATAAAAGTACATGCTTATATATATAT [XGTACX_site3786],9.66
15,AAGTTTATCACAGCCACGCACACATAATATATGTAT [CACACA_site3670],10.1
16,ATTTTTTTTATTCAATGTACTTTTTTTTATATATAT [XGTACX_site4978],9.73
17,TATATAAACATACATACACACATACAATAAGTAAAA [CACACA_site5118],10.1
18,CACCCACTAATAAACACACACATATATATATATATA [CACACA_site389],10.4
19,TACAAAATATATATGACACACATAAAAAAAAGTATA [CACACA_site1373],9.89

row,Sequence,gcPBM binding intensity (ln)
1,CATATAAAAATATGCACACACAGGAATACAAACATA [CACACA_site684],10.3
2,AATAAAAAACTACAATATACAAAATTATTAAATCAA [GTGCAC_negctrl_site703],9.67
3,AAACGTACATAATACACACACATGTATCCATATAAA [CACACA_site5173],10.2
4,ACCTAAGAACTATTTACACACATATACAAAATATAT [CACACA_site2459],9.86
5,ATTGTTCTATGATTTGTACACACTTTTTTTTAAAAT [CACACA_site2825],9.94
6,ATACAATAAAGGTGTACACATATATGATGCAAGATG [CACACA_site5897],10
7,ATATATATTTTTTAATGTACTTATATTTTTATAATA [XGTACX_site2103],9.64
8,AATTAAACTCACACCACACACAAAAAAAAAAAAAAA [CACACA_site693],10.3
9,AGCAATTGTGTTTTCACACATAAATATATTCCTCAC [CACACA_site5021],9.75
10,GGTCATATTTTTTGCACACAAAAAAAAATATAAAAT [CACACA_site3381],9.79
11,ATATATATATATATATGTACACATATATGTGTTTGT [XGTACX_site62],9.87
12,TTAATAAACCTTAGATGTACAGTTATATATAAAATA [XGTACX_site6681],9.54
13,GTATGTATGTATGTATGTACTTATGTAGTCTTAGTT [XGTACX_site1710],9.96
14,AGTGTAGGTATATAAACACACATACAGATATATAAT [CACACA_site4900],9.99
15,TAAAAAATAAAATGGACACACACGTTCAAATTTAGA [CACACA_site2083],10
16,TATTCAGGTCCAATGGTGCAATATATTTTTGTAATA [GTGCAC_site9607],9.61
17,GATTTTTTTTTTTTTTCACACACTAATAATATTATC [CACACA_site464],10.2
18,TTCAAAAAAATGTATACACACATAAGTATAATATAA [CACACA_site3758],9.83
19,TGTTTATGTATCAATTGTACAAAAAAAAAAAAAAAA [XGTACX_site1590],9.37

row,Sequence,gcPBM binding intensity (ln)
1,ATAAATGAAAAAAAGCGTACATATAAAAAAATATAT [XGTACX_site5063],9.98
2,ACTTACCCATTTATTACACACATAAAGGAAAATTTT [CACACA_site4873],9.88
3,TGTAAATAATATAATAGTACGCATATTTTTATTGAA [XGTACX_site284],9.71
4,CTTATGTGCATACCTACACACTTACAGATATATATA [CACACA_site5622],9.88
5,TTCAAATATTTTATTTGTACATAAAAAAGAAAGTTA [XGTACX_site8287],9.39
6,TAGGAAGAATTACTGTGTACTAAAATATTAAAAAGT [XGTACX_site4909],9.75
7,AATCTTCATACCAACACATGCACAAAAGAAATAAAA [TGCATGCA_site563],9.84
8,CATAAGAAAATAAAAACATGCACATAAGAAATATAC [TGCATGCA_site842],10.2
9,ATATAAATATATGGAAGTACACAAAAAAATTAAAAA [XGTACX_site8624],9.86
10,TATATTTATACATATTGTACATTTTATACTTTTACA [XGTACX_site3884],9.78
11,ATTTATAATCAGGGTTGTACACTTATAGAATTTTTA [XGTACX_site4175],9.58
12,GTCGCATTTTATACAAGTACACATGAATTATACAAC [XGTACX_site2200],9.76
13,TAAATAATATCTATCACACACGCATATATACATATA [CACACA_site2622],9.98
14,ATTATTAAAAAGATGTAAATAAATGAATATATGCTT [CACACA_negctrl_site539],9.66
15,TTCTATATATTTTAATGTACATATATGATTATTCTT [XGTACX_site8294],9.84
16,TATTAAGAATTTACATGTACTTGTTAAATAAGAAAA [XGTACX_site4466],9.34
17,ATATAGTATAATAAAAGTACATTTTGATTTTTTCTC [XGTACX_site1797],9.61
18,TTAAAAAAAAGACACACACACATACACATATTTATA [CACACA_site7535],11.2
19,TATATATATATATATACACACATATATATAAATATA [CACACA_site2035],9.75
